Results on 81 compounds are retold here after ChEMBL document CHEMBL5308541, “MAIP: An Open-Source Tool to Enrich High-Throughput Screening Output and Identify Novel, Druglike Molecules with Antimalarial Activity” (ACS Med Chem Lett, 2023).

SMILES strings stand for the structures. Screen size: about 150,000 compounds; about 540 (0.36%) showed an effect of 50% or more. Some of the results follow.

In the assay the test system is Plasmodium falciparum. Kind of assay: Primary screen in NF54 nanoGlo assay, in single point, at 2uM, 72h; a lower Z score goes with more inhibition. It is filed as functional, Erythrocyte. The settings on record: timepoint 72 hour.
For the compound `CN1CCN(CCNC(=O)C2CCN(Cc3cc4ccccc4n3Cc3cccc(F)c3)CC2)CC1`, the “% Inhibition” value is on record as 18% and the Z score was -3.13.
On to `O=C(c1ccc(N2CCC(NCC3(N4CCOCC4)CCCC3)CC2)cc1)N1CCC[C@H](O)C1`, for which the “% Inhibition” value was determined as 1% and the Z score is given as -0.11.
Consider `c1nc(NC2COCC2N2CCCC2)c2ccsc2n1` (configuration not stated), for which the “% Inhibition” value is reported as 7% and the Z score is on record as -1.61.
The corresponding values for `c1ncc(N2CCN([C@H]3CCNC3)CC2)nc1OC1CCCCC1` are 4% and -0.81.
In the case of `O=C(Nc1ccc(F)cc1)N[C@H]1CCN(c2cc(C(F)(F)F)nc(-c3ccncc3)n2)C1`, the “% Inhibition” value is -4% and the Z score turned out to be 0.63.
Turning to `CN1CCC(N2CCC[C@H]2C(=O)Nc2ccc(-c3cccc(F)c3)cc2)CC1`, the “% Inhibition” value was -6% and the Z score is reported as 1.03.
The corresponding values for `Clc1ccc2nccc(N3CCC(OC4CCOCC4)CC3)c2c1` are -1% and 0.22.
For `O=C(NCCCN1CCOCC1)[C@H](C1CCCC1)N1CCN(C(=O)c2ccc(Cl)c(Cl)c2)CC1` the same measures were 1% and -0.26.
Regarding `CCc1c(C)nc(N)nc1NCCN(CC)CC`, the “% Inhibition” value is -3% and the Z score is recorded as 0.53.
Regarding `Cn1cccc1-c1cc(C(=O)NC2CCN(Cc3cccs3)CC2)n[nH]1`, the “% Inhibition” value is -1% and the Z score is 0.1.
With `c1ccc(CNc2ncnc3c2c(-c2ccccc2)c(-c2ccccc2)n3Cc2ccccc2)cc1`, the “% Inhibition” value was 2% and the Z score is -0.37.
`CCN(C(C)=O)c1nc(C=Cc2nccc(-c3cnn(C)c3)n2)cs1`: the “% Inhibition” value is listed as 2% and the Z score is -0.26.
In the case of `COCCOCC(=O)Nc1ccc(-c2nc3cc(F)ccc3[nH]2)cc1`, the “% Inhibition” value was -6% and the Z score turned out to be 1.18.
Turning to `C[C@@H](c1cccc(CN2CCN(CCN3CCOCC3)CC2)c1)N(C)C`, the “% Inhibition” value was 9% and the Z score is -1.53.
Turning to `CC(C)(C)NC(=O)CN1CCC(CNc2ncnc3c(F)cccc23)CC1`, the “% Inhibition” value is recorded as -1% and the Z score came to 0.22.
The corresponding values for `Cc1cc(N2CCC(NC(=O)c3ccccc3-c3ncc(-c4ccccc4)o3)CC2)ncn1` are -29% and 5.1.
Take `COc1cc(NC2CCN([C@H]3CCOC3)CC2)cc2cccnc12`: the “% Inhibition” value came out at 13% and the Z score was -2.52.
The corresponding values for `CCOc1cc(-c2c(-c3ccccc3)ncn2Cc2cccnc2)ccc1O` are 1% and -0.17.
For `O=C(Nc1ccc(-n2cnc3ccccc32)cc1)N1CC2CCC1CNC2` (configuration not stated) the same measures were 0% and -0.02.
Turning to `Cc1noc(-c2ccc(S(=O)(=O)NC3CCS(=O)(=O)CC3)o2)c1C`, the “% Inhibition” value is -8% and the Z score stood at 1.17.
On to `COC[C@@H](O)CN1CCC(Nc2c(C#N)cnc3ccc(OC(F)F)cc23)CC1`, for which the “% Inhibition” value is given as -7% and the Z score is on record as 1.3.
For `OC1CCC(CNC2CCN(C3CCCCC3)CC2)C1` (configuration not stated), the “% Inhibition” value worked out at 0% and the Z score is reported as -0.06.
The corresponding values for `O=C1CCCc2cc(C(=O)N3CC(O)C(Cc4ccccc4)C3)ccc21` (configuration not stated) are -6% and 1.
Regarding `CN(C(=O)c1cc2occc2[nH]1)C1CC2CCC(C1)N2C(=O)OC(C)(C)C` (configuration not stated), the “% Inhibition” value is reported as -5% and the Z score is 0.91.
Take `O=C(c1ccc2ncsc2c1)N1CC(c2nc(-c3ccncc3)no2)C1`: the “% Inhibition” value is listed as -14% and the Z score was found to be 2.78.
With `Cc1c(CN(C)C(=O)NCCN2CCC(CO)CC2)[nH]c2ccccc12`, the “% Inhibition” value is given as -7% and the Z score was 1.36.
The corresponding values for `CN(C)C[C@H](O)CN1CCN(Cc2ccc(-c3ccccc3C#N)o2)CC1` are 2% and -0.46.
For `COc1c(F)c(F)cc(C(=O)N2CCC(N3CC(=O)N(C)C3=O)CC2)c1F` the same measures were 2% and -0.31.
For `COc1ccccc1Nc1nnc(-c2ccc(OC(C)C)c(OC)c2)o1` the same measures were -7% and 1.19.
Consider `c1ccc(Oc2cccc(CNCCc3nc4ccccc4[nH]3)c2)cc1`, for which the “% Inhibition” value is recorded as -7% and the Z score was 1.19.
For the compound `O=C(Cc1csc(-c2cccc(F)c2)n1)NC[C@H](c1ccccc1)c1c[nH]c2ccccc12`, the “% Inhibition” value was -6% and the Z score is 1.11.
For `c1cc(NC2CCN(c3cnccn3)CC2)cc(-c2ccn[nH]2)c1` the same measures were 6% and -1.
For `CN1CCN(C[C@H]2CCCN(C(=O)CCCN3CCCC3)C2)CC1` the same measures were 2% and -0.38.
For `O=C(c1ccncc1)N1CCC(NCCN2CCCC[C@@H]2CO)CC1` the same measures were -16% and 2.77.
As for `O=C1NC2(CCN(Cc3ccc4[nH]ccc4c3)CC2)C[C@@H]1c1ccccc1`, the “% Inhibition” value is recorded as 7% and the Z score is -1.28.
Consider `O=c1nc2c3ccccc3nc(Nc3ccccc3)n2nc1-c1ccc(F)cc1`, for which the “% Inhibition” value is on record as -10% and the Z score came to 1.59.
Turning to `CCCN(CC)c1ccc(C(=O)NCc2cc[nH]n2)cc1`, the “% Inhibition” value is -16% and the Z score turned out to be 2.75.
As to `CC(O)c1cc(NC[C@H](O)c2ccc(Cl)c(Cl)c2)ccc1F` (some centres not stated), the “% Inhibition” value is -2% and the Z score amounted to 0.4.
As to `Cc1cc(Cl)ccc1OCCN1CCN(Cc2cc(-c3ccncc3)no2)CC1`, the “% Inhibition” value is given as -3% and the Z score was 0.62.
For `Cc1nn(CC(N)=O)c(C)c1-c1cc(NC2CCCC2)nc2[nH]ccc12` the same measures were 4% and -0.77.
`COC(=O)N[C@H](C(=O)Nc1cc(CCc2ccccc2C)n[nH]1)C(C)C`: the “% Inhibition” value was -4% and the Z score came to 0.65.
For `COc1cc(-c2cc(C(=O)N3CCC(N4CC[C@H](OC)C4)CC3)n[nH]2)cc(OC)c1OC` the same measures were -2% and 0.28.
For `OCC1CCN(Cc2ccccc2NCc2noc(-c3ccsc3)n2)CC1` the same measures were -10% and 1.77.
On to `Cc1ccc2[nH]c(CCNC3CCN(C)CC3)nc2c1C`, for which the “% Inhibition” value is recorded as 7% and the Z score is given as -1.19.
The corresponding values for `CC(C)Cn1cncc1CNc1ncnc2[nH]ccc12` are 0% and -0.01.
The corresponding values for `COc1cc2c(NCCCN3CC(C)OC(C)C3)ncnc2cc1F` (configuration not stated) are 2% and -0.27.
For `Cc1ccc2cccc(C(=O)N[C@H]3CCN(C4CCN(C)CC4)C3)c2n1` the same measures were -13% and 2.27.
As for `COCC12CCC(N3CCOCC3)CC1CCN(Cc1ccc3[nH]ccc3c1)C2` (configuration not stated), the “% Inhibition” value amounted to 7% and the Z score was -1.16.
Regarding `FC(F)(F)CN1CC[C@H](NCc2cccc3[nH]ccc23)C1`, the “% Inhibition” value is reported as 0% and the Z score amounted to 0.08.
The corresponding values for `O=S1(=O)CCC(O)(CN2CCC[C@H](CN3CCCCCC3)C2)CC1` are -7% and 1.3.
For `COc1cccc(C(C(=O)O)N2CCC(O)(Cc3ccc(F)cc3)C2)c1` (configuration not stated), the “% Inhibition” value was 6% and the Z score is -0.89.
`Clc1cnc(NCCN2CCN(c3ccccc3)CC2)nc1`: the “% Inhibition” value is reported as 3% and the Z score is recorded as -0.49.
For `CCN1CCN(C[C@@H](C)CNCc2cc(-c3ccccc3)ccc2OC)CC1` the same measures were 19% and -4.12.
As to `OC1(C2CCN(C3CC4(CCCCC4)C3)CC2)CC1`, the “% Inhibition” value amounted to 2% and the Z score is listed as -0.23.
The corresponding values for `c1ccc(CN2CC3CCC(C2)N(c2ncnc4cc[nH]c24)C3)cc1` (configuration not stated) are 11% and -1.65.
For `Fc1ccc(N2CC[C@H](NCCOc3cccc4cccnc34)C2)cc1` the same measures were 0% and -0.07.
For `CCN(C[C@H](O)c1cccc(O)c1)C(=O)c1ccccc1-c1nn[nH]n1` the same measures were -3% and 0.66.
Take `CC(=O)NC1C(Oc2cccc(Nc3nc(-c4ccc(C)cc4)nc4ccccc34)c2)OC(CO)C(O)C1O` (configuration not stated): the “% Inhibition” value was 2% and the Z score was -0.34.
For `COc1cc(CNC(=O)NCc2nc(C)cs2)c2ccccc2n1` the same measures were -1% and 0.18.
Take `CC(C)(C)OC(=O)NCCN1C(=O)c2ccccc2N[C@@H]1c1ccc(OCCN2CCCC2)cc1`: the “% Inhibition” value is reported as -9% and the Z score is 1.35.
For `Cc1ncnc(OCC2CCN(S(=O)(=O)c3ccccc3Cl)CC2)c1C` the same measures were -1% and 0.22.
For `CCN1CCN(Cc2cc(C)cc(CNCc3nc4cc(C)ccc4[nH]3)c2C)CC1` the same measures were 4% and -0.85.
For `O=C(Cc1c[nH]c2cc(F)ccc12)N[C@H]1CCCN(Cc2ccc(F)cc2F)C1=O` the same measures were 0% and 0.01.
`Cn1cc(-c2cncc(CNC(=O)c3cc(-c4ccc(F)cc4)n[nH]3)c2)cn1`: the “% Inhibition” value is -4% and the Z score was determined as 0.77.
The corresponding values for `Clc1cccc(N2CC[C@H](CNC3CCN(Cc4ccco4)CC3)C2)c1` are 31% and -5.5.
The corresponding values for `CCCc1nc(N2CC(O)C(Cc3ccnc4ccccc34)C2)no1` (configuration not stated) are 1% and -0.16.
For `COc1cc([C@H]2Nc3cc(Cl)ccc3-c3ccnn32)ccc1OCc1cccc(C(F)(F)F)c1` the same measures were -16% and 2.4.
As to `COCC1C(C(=O)NCCN2CCC(N3CCCCC3)CC2)CCCN1C` (configuration not stated), the “% Inhibition” value is -5% and the Z score is on record as 0.82.
With `COc1cc(CN2C[C@H]3CNC[C@H]3C2)ccc1OCCN1CCCC1`, the “% Inhibition” value was -5% and the Z score is listed as 0.82.
The corresponding values for `COc1ccc(-c2onc(C)c2C)cc1S(=O)(=O)NCCCN1CCC(N2CCCCC2)CC1` are 15% and -2.57.
`Cc1cc(CC(C)C)nc(N2CC[C@H](NC3CCNCC3)C2)n1`: the “% Inhibition” value is -10% and the Z score came out at 1.77.
Turning to `O=C(Nc1nc(C(F)(F)F)c[nH]1)c1cc(-c2ccccc2)[nH]n1`, the “% Inhibition” value stood at 4% and the Z score is -0.88.
The corresponding values for `CN1CCN([C@H]2CCN(Cc3cc(O)c4ccccc4n3)C2)CC1` are -3% and 0.59.
For `C=C(C)CNc1nc(N)nc2c1CCN(C(=O)CN1CCNCC1)CC2` the same measures were 21% and -3.65.
The corresponding values for `CN1CCN(C(=O)Nc2ncc(-c3ccccc3)s2)[C@@H](CNC(=O)OC(C)(C)C)C1` are -2% and 0.32.
On to `COc1ccc([C@H](C(=O)O)N2CCCOc3c(cccc3OC)C2)cc1F`, for which the “% Inhibition” value is recorded as -5% and the Z score is recorded as 0.92.
As to `Fc1cnc(NCCCOC2CCN(Cc3ccccc3)CC2)nc1`, the “% Inhibition” value is 4% and the Z score is on record as -0.82.
Take `CN1CCC(OCCCNC(=O)c2cccc(-c3cccc(C#N)c3)c2)CC1`: the “% Inhibition” value is listed as 5% and the Z score is -0.77.
In the case of `O=C(c1cc(-c2ccccc2)[nH]n1)N1CCC(N2CCC[C@@H]2COCc2ccccc2)CC1`, the “% Inhibition” value is -1% and the Z score turned out to be 0.24.
`Oc1nc2ccccc2cc1CNc1cccc(-c2nnc[nH]2)c1`: the “% Inhibition” value is on record as -7% and the Z score is listed as 1.22.
Take `CCOC1CC(CNC2CCN(C3CCCCC3)CC2)(N2CCOCC2)C1` (configuration not stated): the “% Inhibition” value is -1% and the Z score came out at 0.19.

One may read the % Inhibition as the drop in the measured response relative to a control, in per cent.
